The values below come from PubChem BioAssay AID1240 (Sanford-Burnham Center for Chemical Genomics, 2008).

Among all 50,000 compounds or so, about 800 (1.6%) showed an effect of 50% or more. This is one part of the list.

This assay addresses Bcl-2-like protein 10 (Homo sapiens) (UniProt Q9HD36). Briefly: Phenotype converters, Bcl-B/TR3 peptide binding displacement, primary biochemical FP (AID 1240).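 Further: 0% = Bcl-B with tracer peptide and DMSO and 100% = tracer peptide lacking Bcl-B.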 The note with it: GST-Bcl-B / FITC-TR3 peptide fluorescence polarization; stronger effect = higher value; compound at 3.75 mg/L. (In fluorescence polarisation assays a small probe gives low polarisation when free and higher when bound to something large.)
Chain of UniProt Q9HD36 (Q9HD36 whole entry, looked up): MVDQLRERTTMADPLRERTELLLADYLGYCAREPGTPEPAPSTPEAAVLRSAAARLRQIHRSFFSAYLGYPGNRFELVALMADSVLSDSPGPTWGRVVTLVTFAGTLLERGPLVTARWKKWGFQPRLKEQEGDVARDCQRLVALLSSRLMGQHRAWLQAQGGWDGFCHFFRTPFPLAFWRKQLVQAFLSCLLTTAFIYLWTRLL
For the molecule `CC(=O)c1c(C)oc2c(Br)cc(NS(=O)(=O)c3ccc(Cl)cc3)cc12`, the displacement was -4.2%.

Take `COC(=O)c1ccc(-n2c(C)cc(C=C3C(=O)NC(=S)NC3=O)c2C)cc1`: the displacement worked out at 24.8%.

Regarding `CCCOc1cccc(C(=O)Nc2cccc(-c3nc4ccccc4[nH]3)c2)c1`, the displacement was -2.5%.

Turning to `CC(C(=O)NCCCN1CCOCC1)(c1ccccc1)c1ccccc1`, the displacement was determined as 9.1%.

As to `Cc1ccc(N(Cc2ccc(C(=O)N/N=C/c3cc(Br)c(C)o3)cc2)S(C)(=O)=O)cc1C`, the displacement is -39.4%.

Regarding `CCC(Sc1nc(C)cc(C)n1)C(=O)Nc1ccc(S(N)(=O)=O)cc1` (stereo not drawn), the displacement was -8.7%.

As for `COc1ccc(NC2=CC(c3cccc([N+](=O)[O-])c3)N(c3ccc(OC)cc3)C2=O)cc1` (stereo not drawn), the displacement amounted to 5.9%.

Regarding `COc1cccc(C(=O)N2CCN(C3CCN(Cc4ccccc4)CC3)CC2)c1OC`, the displacement was -5.2%.

As to `CCCCOc1ccc(/C=N/NS(=O)(=O)c2ccc(OC)cc2)cc1OCC`, the displacement worked out at 12.4%.

As to `COc1ccc(OC)c(N/C(=N/S(=O)(=O)c2ccc(C)cc2)Nc2nc(C)cc(C)n2)c1`, the displacement was -13.5%.

Consider `COc1ccc(OCC(=O)Nc2cc3oc4ccccc4c3cc2OC)cc1`, for which the displacement was 2.9%.

Regarding `COc1cc(C2CC(=O)Nc3c2ccc2ccccc32)cc(Cl)c1O` (stereo not drawn), the displacement is -4.3%.

As for `Cc1ccc(OCC(=O)n2cnnc2N)cc1`, the displacement turned out to be 11.9%.

Regarding `CCOc1cc(/C=N/Nc2nc(-c3ccccc3)cs2)ccc1O`, the displacement is -3.5%.

As for `COc1ccc(OC)c(N(CC(=O)Nc2ccc3ccccc3c2)S(C)(=O)=O)c1`, the displacement came out at 7.3%.

For `Cn1c(=O)c2c([nH]c(=S)n2Cc2ccccc2Cl)n(C)c1=O`, the displacement was 11.6%.

As to `COc1ccc(S(=O)(=O)Nc2cccc([N+](=O)[O-])c2C)cc1`, the displacement stood at 1.1%.

In the case of `CCOC(=O)c1ccccc1NC(=O)CN(c1ccc(F)cc1)S(=O)(=O)c1ccccc1`, the displacement came out at 0.6%.

For `CC(=O)N1c2ccccc2NC2=C(C(=O)CC(c3ccccc3)C2)C1c1cccc([N+](=O)[O-])c1` (stereo not drawn), the displacement was -9.3%.

With `CCOCCOC(=O)c1ccc(NC(=O)COc2ccc(C)cc2Br)cc1`, the displacement is 15.4%.

In the case of `O=C(Nc1ccc(N2CCCCC2)cc1)c1ccc([N+](=O)[O-])cc1`, the displacement was 0.4%.

Take `O=C1CCCc2oc3ccc(NS(=O)(=O)c4ccccc4)cc3c21`: the displacement stood at 2.5%.

For `Cc1csc(NC(=O)c2ccc(Cl)c([N+](=O)[O-])c2)n1`, the displacement was 4.5%.

Turning to `Cc1cc(C)n2nc(C(=O)NCc3ccccc3)c(Br)c2n1`, the displacement was -2%.

Regarding `CC(=O)Nc1ccc(C(=O)N2CCN(c3ccc(F)cc3)CC2)cc1`, the displacement was determined as 3%.

For `Cc1cc(Cl)ccc1OCC(=O)Nc1sc(C)c(C)c1C(N)=O`, the displacement stood at 79.1%.

Consider `CN(CCOC(=O)c1ccccc1)C1=NS(=O)(=O)c2ccccc21`, for which the displacement is -6.3%.

In the case of `Cc1nn(-c2ccccc2)c(C)c1/C=N\NC(=O)c1cc(C(C)(C)C)[nH]n1`, the displacement is -2%.

On to `CC(=O)Nc1ccc(S(=O)(=O)Nc2ccccc2Br)cc1`, for which the displacement was -2.9%.

As for `CCOC(=O)c1ccc(NC2=CC(=O)CC(c3ccco3)C2)cc1` (stereo not drawn), the displacement is -6.9%.

In the case of `CCOc1ccc(N(CC(=O)NC(C)CC)S(=O)(=O)c2ccc(Br)cc2)cc1` (stereo not drawn), the displacement was -8.1%.

Turning to `COC(=O)c1c(N)sc(C)c1-c1ccccc1`, the displacement was -1.2%.

Consider `C[C@@H]1O[C@@H](Nc2cccc3ccccc23)[C@H](O)[C@H](O)[C@H]1O`, for which the displacement amounted to 20.5%.

For the molecule `COc1cc(/C=C2\SC(=S)NC2=O)ccc1OS(=O)(=O)c1ccc(C)cc1`, the displacement was -98%.

Consider `CCOC(=O)c1oc2cccc(O)c2c1C`, for which the displacement was found to be 25.9%.

Consider `O=C(NC(Cc1ccccc1)Cc1ccccc1)c1ccccc1Br`, for which the displacement was -2.1%.

Turning to `C/C(CC(C)C)=N\NC(=O)C(O)(c1ccccc1)c1ccccc1`, the displacement is -10.4%.

Regarding `CC(C)CCc1c(O)nc(SCCN2CCOCC2)n(-c2ccccc2)c1=O`, the displacement came out at 22.6%.

As for `CCCCOc1ccc(S(=O)(=O)N=Nc2c(O)[nH]c3ccc(Br)cc23)cc1`, the displacement is -0.6%.

For `Cc1oc(/C=N/NC(=O)CN(c2ccccc2)S(=O)(=O)c2ccccc2)cc1Br`, the displacement is -10.3%.

`CCOc1cc(/C=C2\SC(=S)N(/N=C/c3ccc(O)c(OCC)c3)C2=O)ccc1O`: the displacement came to 3.8%.

Turning to `Cc1cccc(C(=O)Nc2c(C(=O)N3CCN(C)CC3)cnn2-c2ccccc2)c1`, the displacement is -9.8%.

On to `O=C(Oc1ccc2c(=O)c(Oc3ccccc3Br)coc2c1)c1ccco1`, for which the displacement was found to be 9.4%.

Turning to `Cc1cc(C)nc(SCC(=O)Nc2ccc(Cl)cc2)n1`, the displacement came to 0.8%.

As to `Cc1ccc(C(=O)N/C(=C\c2cccc([N+](=O)[O-])c2)C(=O)N2CCCCC2)cc1`, the displacement was found to be 5.5%.

For the molecule `O=C1N/C(=N\N=C\c2ccc(O)cc2)SC1Cc1ccc(Br)cc1` (stereo not drawn), the displacement was -27%.

As for `CN(C)CCCNC(=O)c1ccc([N+](=O)[O-])o1`, the displacement turned out to be 5.1%.

Take `CC(C)C(=O)NC(c1ccc(N(C)C)cc1)c1c(O)ccc2ccccc12` (stereo not drawn): the displacement was determined as 6.4%.

Consider `CC(C)CN1C(=O)/C(=C/c2c(F)cccc2Cl)SC1=S`, for which the displacement turned out to be 6.9%.

Consider `COc1cc(/C=C(\C#N)C(N)=O)ccc1O`, for which the displacement was found to be 3.7%.

In the case of `CCCOc1cccc(-c2nc3ccc(Cl)cc3c(=O)o2)c1`, the displacement was found to be 12.1%.

Regarding `Cc1[nH]c2ccccc2c1C=Nc1cc(Cl)cc(Cl)c1`, the displacement was determined as 1.6%.

`Cc1ccc(C(=O)NCCc2nc3ccccc3[nH]2)cc1[N+](=O)[O-]`: the displacement was 17.8%.

As for `COc1ccc(C(=O)Nc2ccc(S(=O)(=O)NC(C)=O)cc2)cc1`, the displacement turned out to be 13.1%.

For `CCC1=NN2C(=N)/C(=C/c3ccc(-c4ccc(Cl)cc4)o3)C(=O)N=C2S1`, the displacement came out at 66.7%.

Take `CCn1ccnc1C(O)c1cccc(OC)c1` (stereo not drawn): the displacement worked out at 12%.

Regarding `COc1ccc(C(=O)Nc2ccc(Cc3ccncc3)cc2)cc1[N+](=O)[O-]`, the displacement is -11.6%.

With `COc1ccccc1CC(=O)Nc1ccc(F)cc1F`, the displacement amounted to 7.8%.

In the case of `COC(=O)c1c(C)[nH]c(/C=C2\C(=O)C=Cc3ccccc32)c1O`, the displacement is -30%.

For `Cc1ccccc1C(=O)NCCN(C)C`, the displacement came to 19.2%.

Turning to `Cc1c(OCC(=O)C(C)(C)C)ccc2c(-c3ccccc3)cc(=O)oc12`, the displacement was found to be 8%.

Take `C/C(=N/OCC(=O)Nc1sc2c(c1C#N)CCCC2)c1ccc(Br)cc1`: the displacement was -12.2%.

On to `C/C(=C\COc1cc(=O)[nH]c2ccccc12)CCC(O)C(C)(C)O` (stereo not drawn), for which the displacement was -4.5%.

Consider `O=C(NCc1ccccn1)c1cc([N+](=O)[O-])cc([N+](=O)[O-])c1`, for which the displacement was -14.6%.

`O=C(Nc1cccc(S(=O)(=O)c2cccc(NC(=O)c3cccs3)c2)c1)c1cccs1`: the displacement is 6.1%.

For the molecule `CCCOC(=O)Cc1c(O)c2ccccc2[nH]c1=O`, the displacement was determined as 2%.

Consider `CC(=O)C1=C(O)C(=O)N(CCN2CCNCC2)C1c1ccc(C)cc1` (stereo not drawn), for which the displacement stood at 0.2%.

Take `COc1ccc(C(=O)NCCN(C)C)cc1OC`: the displacement stood at 5.2%.
